The record followed here is publication PMC10668032.

The other results are listed elsewhere or left out. At the low end of the ranking the order means little.

This experiment concerns the target SIX1-Q177R homeodomain (UniProt Q15475). The experiment can be described thus: universal protein binding microarray. The note with it: Universal all-10-mer PBM (8x60K, AMADID 030236), 300 nM GST-tagged protein, Alexa Fluor 488 anti-GST; buffer, salt, pH and temperature not stated; high values mean tight binding; most listed sequences are background and not binding sites; double strand, one strand shown.
Regarding AGGGTTGG, the binding signal is 0.0319 E-score.

As to AATCCATG, the binding signal is -0.0667 E-score.

Regarding ACTTATGG, the binding signal is -0.111 E-score.

For CACAGACG, the binding signal is -0.101 E-score.

As for ATGACGTG, the binding signal is 0.1 E-score.

In the case of GCCCGGGC, the binding signal came out at 0.0428 E-score.

For the sequence ATATGACC, the binding signal stood at 0.149 E-score.

On to CCTACCCA, for which the binding signal came to 0.127 E-score.

Regarding GTTCTTAA, the binding signal is -0.21 E-score.

As for CGGTCAAC, the binding signal came to 0.0351 E-score.

CAGTCCGC: the binding signal is -0.357 E-score.

In the case of GCTTAGGA, the binding signal was -0.0983 E-score.

With GCGTGGCC, the binding signal was -0.244 E-score.

As for TCAAGGAA, the binding signal was -0.113 E-score.

With ATTAATAA, the binding signal was -0.221 E-score.

As to AACGCTCA, the binding signal is -0.131 E-score.

Consider GTAACCGA, for which the binding signal is -0.0472 E-score.

For the sequence ATTTGCCC, the binding signal was -0.167 E-score.

Take AGCCTAGC: the binding signal was -0.181 E-score.

On to ACCTCACC, for which the binding signal amounted to 0.0916 E-score.

ATGGAAAC: the binding signal is -0.0389 E-score.

With TGGTAGAA, the binding signal came to 0.103 E-score.

Take AAGAAGAG: the binding signal was -0.0245 E-score.

With CACGATCG, the binding signal turned out to be 0.0981 E-score.

As to CCTATTAG, the binding signal is -0.0965 E-score.

Regarding CCCGCTGC, the binding signal is -0.148 E-score.

CAGACTAC: the binding signal is -0.0151 E-score.

As for GCGGGTGA, the binding signal stood at 0.0511 E-score.

Consider AATAGACG, for which the binding signal was -0.182 E-score.

As for CCGCAAAG, the binding signal is -0.07 E-score.

Consider GCTAGGGA, for which the binding signal was -0.0684 E-score.

Consider AGGGCAAA, for which the binding signal is -0.111 E-score.

In the case of CGTCCATC, the binding signal is -0.0863 E-score.

On to CTACTAAA, for which the binding signal was -0.109 E-score.

For CGACCGCA, the binding signal was -0.057 E-score.

For the sequence AGTCCCTA, the binding signal is -0.0799 E-score.

Turning to GGGTCATA, the binding signal stood at 0.237 E-score.

Take CGTCAGAA: the binding signal is -0.0258 E-score.

Turning to GCGAGTAA, the binding signal is -0.015 E-score.

In the case of ACGGCTCG, the binding signal is -0.0413 E-score.

With GGGGCACC, the binding signal came out at 0.0953 E-score.

As to CTTATAAA, the binding signal was -0.0228 E-score.

For AGGAACCG, the binding signal was -0.118 E-score.

On to AAACAATC, for which the binding signal was -0.298 E-score.

Regarding AGACTCGC, the binding signal is -0.073 E-score.

As for CGAGTGTA, the binding signal is 0.382 E-score.

As for TATCAAGA, the binding signal is -0.0926 E-score.

On to TTACAGAA, for which the binding signal is -0.285 E-score.

Take GTTGCGTA: the binding signal is -0.104 E-score.

CGGATATC: the binding signal turned out to be 0.0661 E-score.

Take ACACCTGA: the binding signal came to 0.448 E-score.

AATGACAG: the binding signal is -0.191 E-score.

For TGACCGCA, the binding signal was -0.118 E-score.

ATTTGTAC: the binding signal was -0.122 E-score.

For GCCGATAC, the binding signal was 0.138 E-score.

As for AGGCAGGA, the binding signal was determined as 0.158 E-score.

Regarding GCGACTAC, the binding signal stood at 0.0791 E-score.

For the sequence AAGCCGGC, the binding signal was -0.168 E-score.

For AAGACTTC, the binding signal is -0.209 E-score.

Take CTGGTTAA: the binding signal is -0.11 E-score.

For AAATACGG, the binding signal is -0.117 E-score.

Turning to CTATCTCC, the binding signal was -0.113 E-score.

GATGGTAC: the binding signal was -0.0663 E-score.

Regarding CTAGTAAC, the binding signal is -0.109 E-score.

With CCTACGCA, the binding signal turned out to be 0.17 E-score.

As for AACCTGGT, the binding signal was determined as 0.152 E-score.

Take AGTACCCA: the binding signal was 0.175 E-score.

With AATTGGTC, the binding signal was -0.223 E-score.

ATCTCAAC: the binding signal turned out to be 0.00286 E-score.

Take AACACACC: the binding signal stood at 0.395 E-score.

As for ATACTGTA, the binding signal worked out at 0.0343 E-score.

Turning to CAGAATGC, the binding signal is -0.292 E-score.

For the sequence GAGACCCC, the binding signal stood at 0.225 E-score.

Take TAGCCGGA: the binding signal is -0.0344 E-score.

For the sequence AATAGGTG, the binding signal was 0.207 E-score.

For the sequence CCCGTACC, the binding signal was 0.0901 E-score.

GTTGGATA: the binding signal is -0.00297 E-score.

For the sequence ATCCCCTG, the binding signal is 0.156 E-score.

Consider GTAAGTAC, for which the binding signal was -0.0262 E-score.

Turning to AAGGATGA, the binding signal was -0.0842 E-score.

Turning to ATTGGACA, the binding signal was 0.159 E-score.

Turning to CACACCAG, the binding signal amounted to 0.416 E-score.

GCTTTGCC: the binding signal was -0.186 E-score.

For AACACAAC, the binding signal came out at 0.176 E-score.

GCCGAGAC: the binding signal stood at 0.0808 E-score.

Turning to GTCTTTCA, the binding signal was -0.195 E-score.

Consider AAGACTGT, for which the binding signal is -0.233 E-score.

Take ATATGATG: the binding signal was -0.191 E-score.

For CGGCGAAA, the binding signal is -0.074 E-score.

Consider ATATTGAT, for which the binding signal was -0.0789 E-score.

In the case of CCACCTTA, the binding signal was found to be 0.0504 E-score.

Turning to AGATCTTA, the binding signal was -0.2 E-score.

For the sequence ACTTTCGC, the binding signal is -0.0664 E-score.

Regarding AGAGCATG, the binding signal was -0.148 E-score.

As for GATAATCA, the binding signal worked out at 0.135 E-score.

With GATTGCCA, the binding signal is -0.224 E-score.

As for CGATGTTA, the binding signal was 0.071 E-score.

As to GAGGCGAA, the binding signal is -0.221 E-score.

As for GGCTGTAC, the binding signal was -0.016 E-score.

AGGCACAC: the binding signal came out at 0.203 E-score.

Consider GTCTTGCA, for which the binding signal was -0.0534 E-score.

In the case of CTACACTC, the binding signal stood at 0.412 E-score.

In the case of GAGCCGTA, the binding signal was -0.152 E-score.

Take CGCAGGCC: the binding signal was -0.12 E-score.

In the case of ATCGACGG, the binding signal was -0.0115 E-score.

As for TAAGTTGA, the binding signal came to 0.123 E-score.

As for CCGCCATC, the binding signal was -0.118 E-score.

Consider CAGAGCCA, for which the binding signal is -0.27 E-score.

On to AGCGCCGA, for which the binding signal was -0.257 E-score.

As for GAGTTCAA, the binding signal is -0.167 E-score.

For the sequence ACCACAGG, the binding signal was -0.0446 E-score.

In the case of ATCGCACA, the binding signal is -0.0639 E-score.

With AGTGCTCA, the binding signal worked out at 0.0592 E-score.

Regarding ACCCTTCC, the binding signal was determined as 0.161 E-score.

In the case of CGTAACCC, the binding signal came out at 0.225 E-score.

With CTGGTAGC, the binding signal was -0.123 E-score.

For the sequence CCCTAGAG, the binding signal is 0.132 E-score.

With AAAACACG, the binding signal worked out at 0.321 E-score.

As to CTCACGGC, the binding signal is -0.169 E-score.

On to ATTGGATC, for which the binding signal was determined as 0.0864 E-score.

CATGCCCG: the binding signal was -0.0916 E-score.

Take AATTCGAT: the binding signal was -0.172 E-score.

Take AACGGTAT: the binding signal turned out to be 0.00353 E-score.

On to CTAGTCGA, for which the binding signal was -0.0889 E-score.

On to CGCTCCGA, for which the binding signal is -0.0278 E-score.

On to AAGAAAAG, for which the binding signal was -0.0297 E-score.

For the sequence CCCTCGTA, the binding signal came to 0.119 E-score.

Take GCTCAGAA: the binding signal was -0.125 E-score.

Turning to AGAGTTCG, the binding signal was -0.0736 E-score.

Turning to AGTAGAAG, the binding signal is -0.011 E-score.

Regarding ACCCCGTA, the binding signal was 0.0953 E-score.

Regarding ACTTGCAG, the binding signal was -0.174 E-score.

For the sequence ACAACTAA, the binding signal was -0.0135 E-score.

For CTGGGTAC, the binding signal is 0.278 E-score.

Regarding GATTTTAC, the binding signal was 0.0827 E-score.

Turning to TCAGTGAA, the binding signal was -0.0828 E-score.

In the case of AGGTTCGC, the binding signal was -0.105 E-score.

On to ACACAGGT, for which the binding signal stood at 0.252 E-score.

For CCGTGGGC, the binding signal was 0.0182 E-score.

In the case of GTATACAC, the binding signal was 0.411 E-score.

For GGCGACAA, the binding signal was -0.199 E-score.

With CAGGACCC, the binding signal is 0.116 E-score.

As to AACCAGAG, the binding signal is -0.234 E-score.

Consider CTGAGGGA, for which the binding signal is -0.174 E-score.

CCGGTCTA: the binding signal was -0.112 E-score.

Consider CCCTGCTC, for which the binding signal turned out to be 0.0325 E-score.

With CTCCCATA, the binding signal is -0.0252 E-score.

As to CACTTATA, the binding signal worked out at 0.124 E-score.

In the case of AGAAAAAT, the binding signal came out at 0.0163 E-score.

Consider AGGCAAGG, for which the binding signal is -0.23 E-score.

As to ATGGGCAG, the binding signal is -0.0776 E-score.

For the sequence ATAATCCG, the binding signal was -0.174 E-score.

In the case of AGCCAGGC, the binding signal is -0.0654 E-score.

Take CCCGATTC: the binding signal came out at 0.0349 E-score.

In the case of CCCCCTTC, the binding signal came out at 0.21 E-score.

For GAATGAAA, the binding signal is -0.174 E-score.

CAAAGGTG: the binding signal was 0.329 E-score.

As for ACATTCCA, the binding signal was -0.195 E-score.

Take AGTGCAAC: the binding signal stood at 0.0591 E-score.

Consider ACAATAAT, for which the binding signal was -0.251 E-score.

In the case of ACCGACTC, the binding signal was 0.204 E-score.

In the case of TAGCACTA, the binding signal is -0.00254 E-score.

AAGTTCGT: the binding signal was -0.0682 E-score.

For CACTGATA, the binding signal stood at 0.258 E-score.

Take CAGACTCA: the binding signal is -0.133 E-score.

GGCAAACA: the binding signal amounted to 0.0177 E-score.

Take CCGTAGCG: the binding signal was -0.153 E-score.

Take CTCCACCC: the binding signal amounted to 0.182 E-score.

For CACCCACC, the binding signal was found to be 0.252 E-score.

Regarding AGTCTAGC, the binding signal was -0.201 E-score.

GATGATCA: the binding signal was -0.0144 E-score.

In the case of CTCTTAGA, the binding signal is -0.134 E-score.
